# Reference: the supplement of paper PMC3334620
# The full ranking holds about 33,000 sequences; the median of “E-score (-0.5 to 0.5)” is about -0.056, and the highest 2% start at about 0.38. The list shows a part of the results.
# Molecular target: Stb4 (UniProt P50104)
# Test: PBM E-score (8-mer binding enrichment) (E-score (-0.5 to 0.5)); higher = stronger / more preferred TF binding; most listed sequences are background and not binding sites
# Details: protein concentration: 200 nM; construct: GST-DNA-binding domain
# Procedure: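 Universal 'all 10-mer' protein binding microarrays (Agilent AMADID 015681) probed with GST-tagged S. cerevisiae TFs (full-length or DBD) made by in vitro transcription/translation (PURExpress), about 100-200 nM. Bound TF was detected with fluorescent anti-GST. Each ungapped 8-mer (which stands for itself and its reverse complement) is scored by the PBM enrichment score (E-score), a modified Wilcoxon-Mann-Whitney statistic from -0.5 to +0.5, computed with the Universal PBM Analysis Suite. Scale: above 0.35 generally sequence-specific binding.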
row,Sequence,PBM E-score
1,CGCTTCCG,0.402
2,CAGTCCTA,-0.258
3,ACCGGACT,0.252
4,CAGCGATG,-0.0906
5,GAGTTGAC,0.081
6,GAGCCAAC,-0.29
7,CGGATAAC,0.452
8,GAACCGAC,0.286
9,CAGTATCC,0.146
10,CTCCCTAC,-0.175
11,GGGCGCAC,-0.0798
12,ATAAAATG,-0.11
13,AATATTAC,0.0217
14,ACTCTGGC,-0.0577
15,CGTGGTCA,-0.146
16,AGCGGGAT,0.0765
17,AAGGACCA,-0.16
18,ATATCGCA,-0.132
19,ATAACAAT,-0.105
20,TAAGGGGA,-0.059
21,ACCCCCAC,-0.165
22,ATCATCGG,0.337
23,AGAGTCAT,-0.335
24,GCGCGTTA,0.0702
25,AGCGTCAA,-0.232

row,Sequence,PBM E-score
1,ACTTCGAA,-0.167
2,ATTGACGC,-0.226
3,ACAGATGG,-0.256
4,ACACGTGT,-0.0193
5,AGGATGAC,-0.297
6,ATGGTCGA,-0.177
7,GAACGTCA,-0.175
8,GGAAGAGA,0.182
9,CCGCCAGC,0.133
10,CGGTATTA,0.319
11,GATATGGC,-0.0731
12,ATTTCATG,-0.23
13,ATTGAGTA,-0.123
14,CGAAATGA,0.193
15,CAGAAGGC,-0.129
16,CCGGGAGG,0.27
17,AGACAGAA,-0.159
18,CTGTTGGA,-0.191
19,GGAGACTA,-0.0362
20,GCAACTCA,-0.215
21,ACAATAAC,0.0256
22,CCGGCGAC,0.186
23,AGGGTTCC,0.137
24,CTGAAGCA,-0.165
25,ACAAAAGG,-0.00204

row,Sequence,PBM E-score
1,CCGCATCC,0.233
2,TAGCCTGA,-0.264
3,CTACCCAG,-0.135
4,CACTTAGG,-0.152
5,ATTATAGA,-0.124
6,CTCTTCGC,-0.203
7,CAGGGGAG,-0.089
8,CGGTTACG,0.291
9,GGCCCTTA,-0.0882
10,ACGTAATA,-0.125
11,ATTTATTC,0.114
12,GATCGATA,-0.064
13,GGTACATA,0.203
14,GAAAACGC,-0.0799
15,CCACAGAA,-0.0915
16,AACACGAT,0.0151
17,AATCGCAC,-0.281
18,ATTGGGTA,-0.22
19,CTCATAGC,-0.26
20,ACTTGCCA,-0.149
21,ATGTGAGG,-0.0328
22,GAATTTTA,-0.0123
23,AGGGGGAT,-0.135
24,ACTAGAAC,0.0472
25,GGAATGCA,0.168

row,Sequence,PBM E-score
1,AGTTAGAT,-0.321
2,AGAGACTG,-0.186
3,ACCGAGCA,0.374
4,ACTCGCCA,-0.214
5,ATCACCGC,-0.0862
6,GTTTATCA,0.042
7,ACGAGTTG,0.0016
8,ACGCGTTA,-0.0856
9,ATTCTGCC,0.198
10,TAGCAGGA,-0.134
11,AAGTTCTG,-0.053
12,CAGAGACC,-0.132
13,AATAGAAG,-0.138
14,GGGCGAAA,-0.102
15,AACCTCGG,0.452
16,GGTTAGAC,-0.00117
17,CTTAGAAA,-0.0847
18,CGCGCGGA,0.227
19,CTCGCCTC,-0.208
20,CTGCTCGC,-0.0171
21,CTGGATAC,-0.0349
22,ACATCACT,-0.183
23,CATCAACG,0.00326
24,GATAGGAC,-0.0721
25,GGGTTAGA,-0.0491

row,Sequence,PBM E-score
1,CAGCAATC,-0.0443
2,TGGTACCA,0.0458
3,ACGACATG,-0.26
4,AAAACCCG,0.351
5,CTATTCAC,0.0895
6,CAAGAAGA,-0.0306
7,AAGAGTGT,-0.0765
8,AACATGAT,0.0111
9,CACGAACC,-0.198
10,AAACACAC,0.0639
11,AAGCGATC,0.0964
12,TAATCCTA,-0.00858
13,ACCTACAT,8e-05
14,CGCAAGAG,-0.0844
15,ACGGTACT,0.0575
16,GGATAGAC,0.0611
17,GGGGCTAC,0.0291
18,CCAAAGTC,-0.224
19,CGTTTTGC,-0.0381
20,ATGTGTCC,-0.0365
21,GGCTGGAA,-0.094
22,AACTAAGT,-0.0531
23,GGCCAAGA,-0.145
24,CGTGAGAG,-0.188
25,CCCTGCAG,-0.0791

row,Sequence,PBM E-score
1,CCTTCACG,-0.096
2,GCATTACA,-0.121
3,CAAAAACC,0.0906
4,CTCGCACA,-0.0638
5,GCTGGGGA,-0.181
6,CTGACAGC,-0.101
7,ACGATCAT,-0.174
8,CAGACAGA,-0.288
9,CATCCCAA,-0.165
10,GGTACGAC,0.079
11,CACTCCGC,0.0485
12,ACTTTCAG,-0.114
13,GCACTCCA,-0.0902
14,GCCGAGAC,0.392
15,CATATCTC,-0.0377
16,CTCGATGC,-0.166
17,GGCTACTA,0.0929
18,AGCACACG,-0.159
19,AAAATAAC,-0.0433
20,CACGTGAA,-0.156
21,CGGACATC,0.172
22,CGCCGAAA,0.34
23,TATGGAAA,-0.0329
24,CAGGGTAA,-0.159
25,CCTACTAG,-0.317

row,Sequence,PBM E-score
1,CAGGATCA,-0.204
2,CGCGGACC,0.204
3,GGTCAAGA,-0.233
4,AGTGGATC,0.173
5,ATATGGCG,0.0558
6,CGGGATCA,0.291
7,AAGTACGT,-0.237
8,ATCGCTTG,-0.295
9,AGCCCAAT,-0.244
10,GTCGGCAC,0.361
11,ACGAATGC,-0.279
12,ACTTTTCA,-0.359
13,CCACTGGG,-0.231
14,CCTTTGTA,-0.186
15,AGGCAATC,-0.183
16,GAGATGGC,0.147
17,GTCCAGAA,-0.0108
18,CACAGTTC,0.173
19,CACTTTCG,0.175
20,CATAGCGA,-0.265
21,CGTCACCC,0.119
22,AGGTGGGG,-0.0596
23,GTCCCTGA,-0.122
24,AAAATGGC,0.1
25,CCGGCAAC,0.282

row,Sequence,PBM E-score
1,AGGGACGA,-0.112
2,CAAGTAGA,0.00616
3,TGCATTAA,-0.0336
4,TCTTACCA,-0.222
5,CTAGGAAA,-0.236
6,CCTTATGC,-0.124
7,GAGCTATC,0.0487
8,ATGACTGG,-0.0325
9,CCGTCCCG,0.366
10,GCGGCGGA,0.283
11,ACTTACCA,-0.22
12,CCTTGGGA,-0.113
13,TAATAGAA,-0.097
14,AGTCGAGG,-0.184
15,ACCCCGAC,0.248
16,CGGGCTAA,0.157
17,GAACGAAC,-0.00145
18,AAAGTCCA,-0.235
19,AATCCCTA,-0.186
20,ACTATCCT,-0.0638
21,AGGGCTAG,-0.142
22,AGCCTGGA,-0.138
23,AGGGTCAG,-0.249
24,AGACAGAC,-0.00021
25,CTCAACTA,0.179

row,Sequence,PBM E-score
1,ATATAGAA,-0.00737
2,GTAGACTA,-0.0794
3,TAATGCCA,-0.0954
4,GCCTCAAC,-0.11
5,ATACTTAC,0.00871
6,GAATCAAA,0.0314
7,CGATGCAG,0.0391
8,ACTTCCTG,-0.0685
9,AGTTGTCA,0.0249
10,TAGACACA,-0.11
11,TCTATCCA,-0.0645
12,ATAAGGGG,0.0144
13,ACTTATCA,-0.126
14,CCTACCGC,0.018
15,AGGTGTTC,-0.14
16,CAGGGGGG,-0.273
17,AGCTATTG,-0.00991
18,AAGAAGAA,0.126
19,GCGATATA,-0.198
